# Experimental data as given in the supplement of paper PMC8728848.
# Some of the results follow.
# B1: CBM13 2a (Mycobacterium tuberculosum), P64849 (protein)
# chain: DGPVQLKSRLGDVCLDAPSGSWFSPLVINPCNGTDFQRWNLTDDRQVESVAFPGECVNIGNALWARLQPCVNWISQHWTVQPDGLVKSDLDACLTVLGGPDPGTWVSTRWCDPNAPDQQWDSVPLEHHHHHH
# Assays:
# Assay in all cases: glycan array binding signal (z-score within array); higher = stronger binding
# Details in all cases: glycan notation: IUPAC condensed, linker removed
# [1] = target: Neu5Ac(a2-3)Gal(b1-3)[Fuc(a1-4)]GlcNAc
# Procedure, shortened: (§1)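 The binding signal is a Z-score computed within each array and averaged over linkers. Arrays of the same protein sequence at different concentrations or buffers were also averaged together. Data originate from 3228 arrays in the Consortium for Functional Glycomics database, kept only where the protein sequence was available.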
# [2] = target: Neu5Ac(a2-3)Gal(b1-3)[Fuc(a1-4)]GlcNAc(b1-3)Gal(b1-3)[Fuc(a1-4)]GlcNAc
# Procedure, shortened: as §1
# [3] = target: Neu5Ac(a2-3)Gal(b1-3)[Fuc(a1-4)]GlcNAc(b1-3)Gal(b1-4)[Fuc(a1-3)]GlcNAc
# Procedure, shortened: as §1
# [4] = target: Neu5Ac(a2-3)Gal(b1-3)[GlcNAc(b1-6)]GalNAc
# Procedure, shortened: as §1
# [5] = target: Neu5Ac(a2-3)Gal(b1-3)[Neu5Ac(a2-6)]GalNAc
# Procedure, shortened: as §1
# [6] = target: Neu5Ac(a2-3)Gal(b1-3)[Neu5Ac(a2-6)]GlcNAc(b1-3)[Fuc(a1-3)[Gal(b1-4)]GlcNAc(b1-6)]Gal(b1-4)Glc
# Procedure, shortened: as §1
# [7] = target: Neu5Ac(a2-3)Gal(b1-3)]Neu5Ac(a2-3)Gal(b1-4)]GlcNAc
# Procedure, shortened: as §1
# [8] = target: Neu5Ac(a2-3)Gal(b1-4)Glc
# Procedure, shortened: as §1
# [9] = target: Neu5Ac(a2-3)Gal(b1-4)GlcNAc
# Procedure, shortened: as §1
# [10] = target: Neu5Ac(a2-3)Gal(b1-4)GlcNAc(b1-2)Man
# Procedure, shortened: as §1
# [11] = target: Neu5Ac(a2-3)Gal(b1-4)GlcNAc(b1-2)Man(a1-3)[GlcNAc(b1-4)][Neu5Ac(a2-3)Gal(b1-4)GlcNAc(b1-2)Man(a1-6)]Man(b1-4)GlcNAc(b1-4)GlcNAc
# Procedure, shortened: as §1
# [12] = target: Neu5Ac(a2-3)Gal(b1-4)GlcNAc(b1-2)Man(a1-3)[Neu5Ac(a2-3)Gal(b1-4)GlcNAc(b1-2)Man(a1-6)]Man(b1-4)GlcNAc(b1-4)GlcNAc
# Procedure, shortened: as §1
# [13] = target: Neu5Ac(a2-3)Gal(b1-4)GlcNAc(b1-2)Man(a1-3)[Neu5Ac(a2-3)Gal(b1-4)GlcNAc(b1-2)Man(a1-6)]Man(b1-4)GlcNAc(b1-4)[Fuc(a1-6)]GlcNAc
# Procedure, shortened: as §1
# [14] = target: Neu5Ac(a2-3)Gal(b1-4)GlcNAc(b1-2)Man(a1-3)[Neu5Ac(a2-6)Gal(b1-4)GlcNAc(b1-2)Man(a1-6)]Man(b1-4)GlcNAc(b1-4)GlcNAc
# Procedure, shortened: as §1
# [15] = target: Neu5Ac(a2-3)Gal(b1-4)GlcNAc(b1-2)[Neu5Ac(a2-3)Gal(b1-4)GlcNAc(b1-2)]Man(a1-6)[Neu5Ac(a2-3)Gal(b1-4)GlcNAc(b1-2)Man(a1-3)][GlcNAc(b1-4)]Man(b1-4)GlcNAc(b1-4)GlcNAc
# Procedure, shortened: as §1
# [16] = target: Neu5Ac(a2-3)Gal(b1-4)GlcNAc(b1-2)[Neu5Ac(a2-3)Gal(b1-4)GlcNAc(b1-4)]Man(a1-3)[GlcNAc(b1-4)][Neu5Ac(a2-3)Gal(b1-4)GlcNAc(b1-2)[Neu5Ac(a2-3)Gal(b1-4)GlcNAc(b1-6)]Man(a1-6)]Man(b1-4)GlcNAc(b1-4)GlcNAc
# Procedure, shortened: as §1
# [17] = target: Neu5Ac(a2-3)Gal(b1-4)GlcNAc(b1-2)[Neu5Ac(a2-3)Gal(b1-4)GlcNAc(b1-4)]Man(a1-3)[GlcNAc(b1-4)][Neu5Ac(a2-3)Gal(b1-4)GlcNAc(b1-4)Man(a1-6)]Man(b1-4)GlcNAc(b1-4)GlcNAc
# Procedure, shortened: as §1
# [18] = target: Neu5Ac(a2-3)Gal(b1-4)GlcNAc(b1-2)[Neu5Ac(a2-3)Gal(b1-4)GlcNAc(b1-6)]Man(a1-6)[Neu5Ac(a2-3)Gal(b1-4)GlcNAc(b1-2)Man(a1-3)]Man(b1-4)GlcNAc(b1-4)GlcNAc
# Procedure, shortened: as §1
# [19] = target: Neu5Ac(a2-3)Gal(b1-4)GlcNAc(b1-3)Gal
# Procedure, shortened: as §1
# [20] = target: Neu5Ac(a2-3)Gal(b1-4)GlcNAc(b1-3)Gal(b1-3)GlcNAc
# Procedure, shortened: as §1
# [21] = target: Neu5Ac(a2-3)Gal(b1-4)GlcNAc(b1-3)Gal(b1-4)GlcNAc
# Procedure, shortened: as §1
# [22] = target: Neu5Ac(a2-3)Gal(b1-4)GlcNAc(b1-3)Gal(b1-4)GlcNAc(b1-2)Man(a1-3)[Neu5Ac(a2-3)Gal(b1-4)GlcNAc(b1-3)Gal(b1-4)GlcNAc(b1-2)Man(a1-6)]Man(b1-4)GlcNAc(b1-4)GlcNAc
# Procedure, shortened: as §1
# [23] = target: Neu5Ac(a2-3)Gal(b1-4)GlcNAc(b1-3)Gal(b1-4)GlcNAc(b1-3)Gal(b1-4)GlcNAc
# Procedure, shortened: as §1
# [24] = target: Neu5Ac(a2-3)Gal(b1-4)GlcNAc(b1-3)Gal(b1-4)GlcNAc(b1-3)Gal(b1-4)GlcNAc(b1-2)Man(a1-3)[Neu5Ac(a2-3)Gal(b1-4)GlcNAc(b1-3)Gal(b1-4)GlcNAc(b1-3)Gal(b1-4)GlcNAc(b1-2)Man(a1-6)]GalNAc
# Procedure, shortened: as §1
# [25] = target: Neu5Ac(a2-3)Gal(b1-4)GlcNAc(b1-3)Gal(b1-4)GlcNAc(b1-3)GalNAc
# Procedure, shortened: as §1
# [26] = target: Neu5Ac(a2-3)Gal(b1-4)GlcNAc(b1-3)Gal(b1-4)GlcNAc(b1-3)[Neu5Ac(a2-3)Gal(b1-4)GlcNAc(b1-3)Gal(b1-4)GlcNAc(b1-6)]GalNAc
# Procedure, shortened: as §1
# [27] = target: Neu5Ac(a2-3)Gal(b1-4)GlcNAc(b1-3)Gal(b1-4)GlcNAc(b1-6)[Gal(b1-3)]GalNAc
# Procedure, shortened: as §1
# [28] = target: Neu5Ac(a2-3)Gal(b1-4)GlcNAc(b1-3)Gal(b1-4)[Fuc(a1-3)]GlcNAc
# Procedure, shortened: as §1
# [29] = target: Neu5Ac(a2-3)Gal(b1-4)GlcNAc(b1-3)GalNAc
# Procedure, shortened: as §1
# [30] = target: Neu5Ac(a2-3)Gal(b1-4)GlcNAc(b1-3)[Neu5Ac(a2-3)Gal(b1-4)GlcNAc(b1-6)]GalNAc
# Procedure, shortened: as §1
binder,measurement,setting,value
B1,glycan array binding signal (z-score),[1],-0.281
same,glycan array binding signal (z-score),[2],-0.215
same,glycan array binding signal (z-score),[3],-0.344
same,glycan array binding signal (z-score),[4],-0.228
same,glycan array binding signal (z-score),[5],-0.107
same,glycan array binding signal (z-score),[6],-0.258
same,glycan array binding signal (z-score),[7],-0.281
same,glycan array binding signal (z-score),[8],0.291
same,glycan array binding signal (z-score),[9],-0.236
same,glycan array binding signal (z-score),[10],0.164
same,glycan array binding signal (z-score),[11],-0.104
same,glycan array binding signal (z-score),[12],-0.275
same,glycan array binding signal (z-score),[13],-0.127
same,glycan array binding signal (z-score),[14],-0.106
same,glycan array binding signal (z-score),[15],-0.048
same,glycan array binding signal (z-score),[16],-0.091
same,glycan array binding signal (z-score),[17],-0.205
same,glycan array binding signal (z-score),[18],-0.017
same,glycan array binding signal (z-score),[19],-0.333
same,glycan array binding signal (z-score),[20],-0.206
same,glycan array binding signal (z-score),[21],-0.249
same,glycan array binding signal (z-score),[22],7.02
same,glycan array binding signal (z-score),[23],-0.137
same,glycan array binding signal (z-score),[24],9.05
same,glycan array binding signal (z-score),[25],-0.177
same,glycan array binding signal (z-score),[26],1.9
same,glycan array binding signal (z-score),[27],3.14
same,glycan array binding signal (z-score),[28],-0.183
same,glycan array binding signal (z-score),[29],-0.179
same,glycan array binding signal (z-score),[30],-0.323
